Assay results published in the RNAGym collection of RNA variant scans (doi:10.1073/pnas.2313332121).
Variants at the floor of the assay are shown more often than the library holds them.

B1: TPR 5TU (parent)
chain: GGAUCUUCUCGAUCUAACAAAAAAGACAAAUCUGCCACAAAGCUUGAGAGCAUCUUCGGAUGCAGAGGCGGCAGCCUUCGGUGGCGCGAUAGCGCCAACGUUCUCAACUAUGACACGCAAAACGCGUGCUCCGUUGAAUGGAGUUUAUCAUG

Variants of: B1
Assay: polymerase ribozyme fitness, log enrichment relative to wild type (log ratio); higher = more active; in vitro selection for triplet polymerase activity
Procedure, shortened: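 Only genotypes with ≥10 input reads and ≥1 read per output were kept after Illumina sequencing of input and output libraries. These libraries were PCR-built, transcribed mutants of each subunit of a heterodimeric triplet polymerase ribozyme, each put through one triplicate in vitro selection round with frozen incubation at −7 °C, gel excision of extended constructs, streptavidin-bead capture and RT-PCR. Fitness is a logarithmic ratio of genotype enrichment to wild-type enrichment, from inverse-variance-weighted replicate averages, with the logarithm in base 2.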

Variant	polymerase ribozyme fitness (log ratio)
GGAUCUUCUCGAUCUAACAAAAAAGACAAAUCUGCCACAAAGCUUGAGAGCAUCUGCGGAUGCAGAGGCGGCAGCCUUCGGUGGCGCGAGAGCGCCAACGUUCUCAACUAUGACACGCUAAACGCGUGCUCCGUUGAAUGUAGUUUAUCAUG [U56G U90G A119U G141U]	≤ -4.2
GGAUCUUCUCGAUCUAACAAAAAAGACAAAUCUGCCACAAAGCUUGAGAGCAUCUUAGGAUGCAGAGGCGGGAGCCUUCGGUGGCGCGAUAGCGCCAACGUUCUCAACUAUGACACGCAAAACGCGUGCUCCGUUGAAUGGAGUUAAUCAUG [C57A C72G U146A]	≤ -4.2
GGAUCUUCUCGAUCUAACAAAAAAGACAAAUCUGCCACAAAGCUUGAGAGCAUCUUAGGAUGCAGAGGCGGCUGCCUUCGGUGACGCGAUAGCGCCAACGUUCUCAACUAUGACACGCAAAACGCGUGCUCCGUAGAAUGGAGUUUAUCAUG [C57A A73U G84A U135A]	-2.22
GGAUCUUCUCGAUCUAACAAAAAAGACAAAUCUGCCACAAAGCUUGAGAGCAUCUUAGGCAGCAGAGGCGGCAGCCUUCGGUGGCGCAAUAGCGCCAACGUUCUCAACUAUGACACGCAAAACGCGUGCUCCGUUGAAUGGAGUUUAGCAUG [C57A A60C U61A G88A U148G]	≤ -4.2
GGAUCUUCUCGAUCUAACAAAAAAGACAAAUCUGCCACAAAGCUUGAGAGCAUCUGCGGAUGCAGAGGCGGCAGCCUUCGUUGGCGCGAUGGCGCCAACGUUCUCAACUAUGACACGCAAAACGCGUGCUCCGUUGAAUGGAGUUUAUCAUG [U56G G81U A91G]	-3.38
GGAUCUUCUCGAUCUAACAAAAAAGACAAAUCUGCCACAAAGCUUGAGAGCAUCUUAGGAUGCAGAGGCGGCAGCCUUCGGUGGUGCGAUAGCGCCAACGUUCUCAACUAUGACACGCAAAACUCGUGCACCGUUGAAUGGAGUUUAUCAUG [C57A C85U G124U U130A]	-2.9
GGAUCUUCUCGAUCUAACAAAAAAGACAAAUCUGCCACAAAGCUUGAGAGCAUCUUAGGAUGCAGAGGCGGCAGCCUUCGGUGGCGCGAUGGCGCCAACGAUCUCAACUAUGACACGCAAAACGCGUGCUCCGUUGAAUGGGGUUUAUCAUG [C57A A91G U101A A142G]	-4.08
GGAUCUUCUCGAUCUAACAAAAAAGACAAAUCUGCCACAAAGCUUGAGAGCAUCUUAGGAUGCAGAGGCGGCAGUCUUCGGUGGCGCGAUACCGCCAACGUUCUCAACUAUGACACGCAAAACGCGUGCUCCGUUGAAUUGAGUUUAUCAUG [C57A C75U G92C G140U]	≤ -4.2
GGAUCUUCUCGAUCUAACAAAAAAGACAAAUCUGCCACAAAGCUUGAGAGCAUCUGCGGAUGCAGAGGCGGCAGCCUUCGGUGCCGCGAUAGCGCCAACGUUCUCAACUAUGACAUGCAAAACGCGUGCUCCGUUGAAUGGAGUUUAUCAUG [U56G G84C C116U]	-4.17
GGAUCUUCUCGAUCUAACAAAAAAGACAAAUCUGCCACAAAGCUUGAGAGCAUCUUAGGAUGCAGAGGCGGCAGCCUUCGGUGGCGCGAUAGCGCCAACGUUCUCAACUAUGACACGCAAACCGCGUGCUCCGUUGAAUGGAGUUUAUCAUG [C57A A122C]	-0.0129
GGAUCUUCUCGAUCUAACAAAAAAGACAAAUCUGCCACAAAGCUUGAGAGCAUCUUAGGAUGCAGAGGCGGCAGACUUCGGUGGCGCGAUAGCGCCAACGUUCCAACCUAUGAUACGCAAAACGCGUGCUCCGUUGAAUUGAGUUUAUCAUG [C57A C75A U104C C105A A107C C114U G140U]	≤ -4.2
GGAUCUUCUCGAUCUAACAAAAAAGACAAAUCUGCCACAAAGCUUGAGAGCAUCUGCGGAUGCAGAGGCGGCAGCCUUCCGUGGUGCGAUAGCGCGAACGUUCUCAACCAUGACACGCAAAACGCGUGCUCCGUUGAAUGGAGUUUGUCUUG [U56G G80C C85U C96G U109C A147G A150U]	≤ -4.2
GGAUCUUCUCGAUCUAACAAAAAAGACAAAUCUGCCACAAAGCUUGAGAGCAUCUGCGGAUGCAGAGGCGGCAGCCUUCGGUAGCGCCAUAGGGCCAACGUUCUCAACUAUGACACGGAAAACGCGUGCUCCGUUGAAUGGAGUUUAUCAUG [U56G G83A G88C C93G C118G]	≤ -4.2
GGAUCUUCUCGAUCUAACAAAAAAGACAAAUCUGCCACAAAGCUUGAGAGCAUCUUAGGAUGCAGAGGCGGCAGCCUUCGGUGGCGCGAUCGCGCCAACGUUCUCAACUAUGACACGCAAAACGCGUGCUCCGUUGAAUGGAGUUUAUCAUG [C57A A91C]	≤ -4.2
GGAUCUUCUCGAUCUAACAAAAAAGACAAAUCUGCCACAAAGCUUGAGAGCAUCUUAGGAUGCAGAGGCGGCAGCCUUCGGUGGCGCGGUGGCGCCAACGUUCUCAACUAUGACACGCAAAACGCGUGCUCCGUUGAAUGGAGUCUAUCAGG [C57A A89G A91G U145C U151G]	≤ -4.2
GGAUCUUCUCGAUCUAACAAAAAAGACAAAUCUGCCACAAAGCUUGAGAGCAUCUUAGGAUGUACAGGCGGCAGCCUUCGGUGGCGCGAUAGCGUCAACGUUCUCAACUAUGACACGCAAAACGUGUGCUCCGUUGAAUGGAGUUUAUCACG [C57A C63U G65C C95U C125U U151C]	≤ -4.2
GGAUCUUCUCGAUCUAACAAAAAAGACAAAUCUGCCACAAAGCUUGAGAGCAUCUGCGGAUGCAGAGGCGGCAGCCUUCGGUGGCGCGAUAUCGCCAACGUUCUCAACUAUGACGGGCAAAACGCAUGCUCCGUUGAAUGGCGUUUAUCGUG [U56G G92U A115G C116G G126A A142C A150G]	≤ -4.2
GGAUCUUCUCGAUCUAACAAAAAAGACAAAUCUGCCACAAAGCUUGAGAGCAUCUGCGGAUGCAGAGGCGGCAGCCUUCGGUUGCGCGAUAGCGCCAACGUUCUCAACUAUGACACGCAAAACGUGUGCUCCGUUGAAUGGAGUUUAUCAUG [U56G G83U C125U]	-1.82
GGAUCUUCUCGAUCUAACAAAAAAGACAAAUCUGCCACAAAGCUUGAGAGCAUCUUAGGAUGCAGAGGCGGCAGCCUUCGGUGGUGCGAUAGCGCCAACGUUCUCAACUAUGACACGCAAAACGCGUGCUCCGUUGAAUGGAGUUUAUCAUG [C57A C85U]	-0.0999
